In paper PMC6104826 one finds binding data, which are given here for 10 substances.

Chains of the proteins cited; added tags and fusions are not shown. Lines headed by an entry give the natural chain unless they say otherwise; changes in a name come on top. A line that says so, or that is headed by a name, gives the form on record, which may keep a tag or linker. Residues count along the entry.
HA-tagged cMyBP-C CT (residues 817–1274) (Q14896, residues 817-1274): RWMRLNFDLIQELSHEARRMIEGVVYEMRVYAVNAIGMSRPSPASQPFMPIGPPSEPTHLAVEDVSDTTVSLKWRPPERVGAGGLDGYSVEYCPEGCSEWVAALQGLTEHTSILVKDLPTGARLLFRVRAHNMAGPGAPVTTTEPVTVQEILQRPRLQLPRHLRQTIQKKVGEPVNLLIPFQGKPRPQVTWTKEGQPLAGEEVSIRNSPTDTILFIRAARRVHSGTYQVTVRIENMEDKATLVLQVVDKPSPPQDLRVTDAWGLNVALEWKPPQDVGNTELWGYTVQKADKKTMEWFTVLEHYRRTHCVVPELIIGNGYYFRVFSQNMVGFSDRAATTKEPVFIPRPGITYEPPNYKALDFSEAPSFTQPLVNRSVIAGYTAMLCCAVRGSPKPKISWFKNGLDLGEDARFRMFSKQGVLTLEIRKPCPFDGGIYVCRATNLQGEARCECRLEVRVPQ
UniProt Q92736: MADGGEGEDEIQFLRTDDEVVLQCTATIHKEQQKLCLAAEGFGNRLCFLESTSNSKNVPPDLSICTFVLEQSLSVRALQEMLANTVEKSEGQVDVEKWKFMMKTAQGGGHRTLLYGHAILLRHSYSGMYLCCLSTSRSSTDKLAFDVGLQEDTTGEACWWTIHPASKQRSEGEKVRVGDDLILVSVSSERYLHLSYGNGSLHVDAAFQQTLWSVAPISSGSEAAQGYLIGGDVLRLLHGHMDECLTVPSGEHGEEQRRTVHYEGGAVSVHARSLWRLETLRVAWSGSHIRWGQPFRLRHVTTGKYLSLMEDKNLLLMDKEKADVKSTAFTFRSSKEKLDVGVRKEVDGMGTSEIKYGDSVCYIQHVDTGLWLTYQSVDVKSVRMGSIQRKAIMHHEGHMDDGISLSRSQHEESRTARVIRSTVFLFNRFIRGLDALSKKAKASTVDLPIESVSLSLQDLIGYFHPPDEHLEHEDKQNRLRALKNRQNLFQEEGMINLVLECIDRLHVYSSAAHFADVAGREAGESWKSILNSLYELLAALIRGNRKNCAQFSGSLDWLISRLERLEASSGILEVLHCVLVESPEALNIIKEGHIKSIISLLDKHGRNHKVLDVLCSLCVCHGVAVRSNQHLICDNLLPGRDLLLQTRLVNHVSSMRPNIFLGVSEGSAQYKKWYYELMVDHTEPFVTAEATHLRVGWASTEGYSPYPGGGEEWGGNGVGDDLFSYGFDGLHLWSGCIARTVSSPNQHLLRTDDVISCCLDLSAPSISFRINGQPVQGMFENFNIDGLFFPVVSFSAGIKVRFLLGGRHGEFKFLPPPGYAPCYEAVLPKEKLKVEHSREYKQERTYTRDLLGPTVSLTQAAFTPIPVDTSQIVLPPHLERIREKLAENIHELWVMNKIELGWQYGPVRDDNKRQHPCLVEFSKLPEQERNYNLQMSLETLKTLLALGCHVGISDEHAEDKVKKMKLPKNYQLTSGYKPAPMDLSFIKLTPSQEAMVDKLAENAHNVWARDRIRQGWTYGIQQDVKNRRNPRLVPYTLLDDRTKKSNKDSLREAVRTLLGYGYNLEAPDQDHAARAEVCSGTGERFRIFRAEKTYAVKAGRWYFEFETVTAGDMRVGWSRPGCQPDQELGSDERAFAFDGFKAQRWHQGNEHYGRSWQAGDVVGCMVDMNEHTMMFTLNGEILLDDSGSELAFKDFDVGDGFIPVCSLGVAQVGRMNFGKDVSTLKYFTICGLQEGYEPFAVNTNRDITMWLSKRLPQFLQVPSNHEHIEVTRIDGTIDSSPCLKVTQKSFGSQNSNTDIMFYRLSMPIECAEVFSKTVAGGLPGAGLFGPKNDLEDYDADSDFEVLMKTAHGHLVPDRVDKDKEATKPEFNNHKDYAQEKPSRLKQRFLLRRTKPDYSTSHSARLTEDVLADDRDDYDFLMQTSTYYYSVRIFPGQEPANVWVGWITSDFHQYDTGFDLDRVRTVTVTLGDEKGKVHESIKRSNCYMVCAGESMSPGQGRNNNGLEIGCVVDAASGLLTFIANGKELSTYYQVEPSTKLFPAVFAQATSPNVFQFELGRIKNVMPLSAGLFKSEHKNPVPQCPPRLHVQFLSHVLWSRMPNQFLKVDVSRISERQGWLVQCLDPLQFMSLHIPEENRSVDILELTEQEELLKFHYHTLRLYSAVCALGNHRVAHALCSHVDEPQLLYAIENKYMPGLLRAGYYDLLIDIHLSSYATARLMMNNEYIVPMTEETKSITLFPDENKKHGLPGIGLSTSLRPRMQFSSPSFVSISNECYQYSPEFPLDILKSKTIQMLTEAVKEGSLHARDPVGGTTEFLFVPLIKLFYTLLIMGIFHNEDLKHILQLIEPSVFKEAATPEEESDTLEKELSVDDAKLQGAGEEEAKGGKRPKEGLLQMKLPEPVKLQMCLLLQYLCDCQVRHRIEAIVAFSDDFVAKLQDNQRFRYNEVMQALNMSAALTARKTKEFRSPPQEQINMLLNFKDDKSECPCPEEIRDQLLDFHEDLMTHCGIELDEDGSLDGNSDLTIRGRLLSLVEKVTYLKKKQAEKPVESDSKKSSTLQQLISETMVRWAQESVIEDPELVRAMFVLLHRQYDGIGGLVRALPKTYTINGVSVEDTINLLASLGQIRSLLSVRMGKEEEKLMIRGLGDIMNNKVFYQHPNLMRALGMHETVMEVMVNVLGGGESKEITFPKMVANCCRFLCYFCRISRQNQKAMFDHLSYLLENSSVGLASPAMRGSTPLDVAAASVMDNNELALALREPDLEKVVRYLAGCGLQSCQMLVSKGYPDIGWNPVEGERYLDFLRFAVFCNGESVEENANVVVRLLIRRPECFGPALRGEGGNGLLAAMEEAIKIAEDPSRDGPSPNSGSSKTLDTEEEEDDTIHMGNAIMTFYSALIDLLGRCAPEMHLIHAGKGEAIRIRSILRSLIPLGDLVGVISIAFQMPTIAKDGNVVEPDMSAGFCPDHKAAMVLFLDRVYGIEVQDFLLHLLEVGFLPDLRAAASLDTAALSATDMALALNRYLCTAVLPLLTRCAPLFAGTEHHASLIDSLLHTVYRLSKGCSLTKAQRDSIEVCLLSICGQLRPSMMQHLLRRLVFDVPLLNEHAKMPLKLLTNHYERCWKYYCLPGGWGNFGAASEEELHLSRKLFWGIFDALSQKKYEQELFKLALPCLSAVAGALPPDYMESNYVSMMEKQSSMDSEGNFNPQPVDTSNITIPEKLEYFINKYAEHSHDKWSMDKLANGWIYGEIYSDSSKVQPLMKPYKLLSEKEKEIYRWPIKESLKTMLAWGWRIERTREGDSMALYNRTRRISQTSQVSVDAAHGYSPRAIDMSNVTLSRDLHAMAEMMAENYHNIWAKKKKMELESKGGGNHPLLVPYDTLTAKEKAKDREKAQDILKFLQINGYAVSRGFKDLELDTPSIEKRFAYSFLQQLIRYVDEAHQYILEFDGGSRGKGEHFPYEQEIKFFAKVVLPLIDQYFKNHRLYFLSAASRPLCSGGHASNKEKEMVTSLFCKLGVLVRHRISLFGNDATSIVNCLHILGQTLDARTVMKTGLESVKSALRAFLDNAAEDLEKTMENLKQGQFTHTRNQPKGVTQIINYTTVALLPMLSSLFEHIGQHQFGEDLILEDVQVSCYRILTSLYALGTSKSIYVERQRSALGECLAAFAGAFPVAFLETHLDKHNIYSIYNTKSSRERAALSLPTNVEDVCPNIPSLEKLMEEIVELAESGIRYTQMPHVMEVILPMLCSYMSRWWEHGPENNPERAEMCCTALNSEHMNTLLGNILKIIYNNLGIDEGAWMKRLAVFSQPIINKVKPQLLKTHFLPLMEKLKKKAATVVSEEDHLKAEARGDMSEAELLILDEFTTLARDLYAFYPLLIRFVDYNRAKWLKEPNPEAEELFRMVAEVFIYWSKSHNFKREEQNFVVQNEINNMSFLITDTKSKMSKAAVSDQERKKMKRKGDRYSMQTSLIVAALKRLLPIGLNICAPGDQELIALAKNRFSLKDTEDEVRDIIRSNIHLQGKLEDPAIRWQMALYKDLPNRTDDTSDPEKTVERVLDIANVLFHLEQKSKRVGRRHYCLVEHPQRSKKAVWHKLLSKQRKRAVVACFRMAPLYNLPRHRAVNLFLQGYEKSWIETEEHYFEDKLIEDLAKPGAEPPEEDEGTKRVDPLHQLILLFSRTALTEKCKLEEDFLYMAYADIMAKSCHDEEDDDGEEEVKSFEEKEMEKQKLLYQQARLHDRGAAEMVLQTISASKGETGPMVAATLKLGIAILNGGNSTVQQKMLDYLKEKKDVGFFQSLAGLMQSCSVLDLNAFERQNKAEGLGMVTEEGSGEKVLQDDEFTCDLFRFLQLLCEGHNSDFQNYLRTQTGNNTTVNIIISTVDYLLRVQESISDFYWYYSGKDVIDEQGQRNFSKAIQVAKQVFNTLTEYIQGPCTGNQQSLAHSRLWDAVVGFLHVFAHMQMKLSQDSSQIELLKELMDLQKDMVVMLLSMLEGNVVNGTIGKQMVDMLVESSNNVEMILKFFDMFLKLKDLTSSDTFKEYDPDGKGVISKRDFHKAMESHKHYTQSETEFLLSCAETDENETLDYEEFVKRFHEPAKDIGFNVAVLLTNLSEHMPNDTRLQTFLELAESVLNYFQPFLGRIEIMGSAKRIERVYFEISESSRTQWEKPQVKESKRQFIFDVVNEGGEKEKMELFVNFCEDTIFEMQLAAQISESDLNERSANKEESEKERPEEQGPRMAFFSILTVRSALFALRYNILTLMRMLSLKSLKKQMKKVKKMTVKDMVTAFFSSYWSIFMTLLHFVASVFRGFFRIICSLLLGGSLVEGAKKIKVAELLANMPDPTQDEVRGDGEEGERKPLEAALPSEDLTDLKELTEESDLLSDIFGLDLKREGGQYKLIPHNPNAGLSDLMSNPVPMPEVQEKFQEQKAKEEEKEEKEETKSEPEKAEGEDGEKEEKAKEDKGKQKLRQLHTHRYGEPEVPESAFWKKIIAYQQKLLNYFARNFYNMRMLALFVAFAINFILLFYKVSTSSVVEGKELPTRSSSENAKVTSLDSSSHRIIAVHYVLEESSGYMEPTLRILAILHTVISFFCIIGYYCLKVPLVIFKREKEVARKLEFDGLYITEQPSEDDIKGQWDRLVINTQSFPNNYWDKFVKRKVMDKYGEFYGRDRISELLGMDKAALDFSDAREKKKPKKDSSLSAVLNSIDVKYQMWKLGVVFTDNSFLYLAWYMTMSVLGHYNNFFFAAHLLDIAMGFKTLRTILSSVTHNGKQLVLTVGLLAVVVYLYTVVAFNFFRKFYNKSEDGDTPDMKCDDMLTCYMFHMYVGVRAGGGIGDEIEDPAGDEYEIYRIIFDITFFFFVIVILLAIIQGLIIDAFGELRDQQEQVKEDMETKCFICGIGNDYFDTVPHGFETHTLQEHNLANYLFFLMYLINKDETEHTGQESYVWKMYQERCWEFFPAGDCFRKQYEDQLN
UniProt Q15413, residues 1-911: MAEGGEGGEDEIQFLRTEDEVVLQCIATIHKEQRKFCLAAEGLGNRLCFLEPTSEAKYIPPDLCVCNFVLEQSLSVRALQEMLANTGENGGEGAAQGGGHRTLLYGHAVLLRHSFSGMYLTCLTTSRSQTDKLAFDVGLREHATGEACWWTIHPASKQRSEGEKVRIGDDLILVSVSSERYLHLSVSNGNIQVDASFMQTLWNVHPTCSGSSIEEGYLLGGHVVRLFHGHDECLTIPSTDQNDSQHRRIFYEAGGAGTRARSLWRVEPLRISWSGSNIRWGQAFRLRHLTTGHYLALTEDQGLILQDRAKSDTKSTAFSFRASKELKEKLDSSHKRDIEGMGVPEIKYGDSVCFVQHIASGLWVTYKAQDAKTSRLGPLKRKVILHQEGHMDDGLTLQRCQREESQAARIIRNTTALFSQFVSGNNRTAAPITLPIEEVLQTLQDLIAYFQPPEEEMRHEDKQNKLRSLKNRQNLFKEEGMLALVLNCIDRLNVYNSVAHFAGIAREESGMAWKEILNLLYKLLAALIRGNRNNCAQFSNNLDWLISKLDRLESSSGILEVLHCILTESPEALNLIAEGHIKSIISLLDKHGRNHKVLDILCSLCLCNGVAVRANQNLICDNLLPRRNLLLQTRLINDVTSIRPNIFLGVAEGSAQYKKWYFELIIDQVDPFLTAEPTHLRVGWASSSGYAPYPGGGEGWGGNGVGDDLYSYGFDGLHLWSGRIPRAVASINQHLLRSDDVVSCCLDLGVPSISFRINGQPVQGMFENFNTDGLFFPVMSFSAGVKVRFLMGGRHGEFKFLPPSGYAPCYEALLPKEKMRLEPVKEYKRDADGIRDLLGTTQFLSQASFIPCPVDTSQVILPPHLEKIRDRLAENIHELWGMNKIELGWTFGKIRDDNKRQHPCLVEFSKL

For assay [1], the target named is HA-tagged cMyBP-C CT (residues 817–1274) (human) (UniProt Q14896). Kind of assay: co-IP; HEK293 cells co-expressing cMyc-tagged BT (RyR) constructs with HA-tagged cMyBP-C constructs; HA–cMyBP-C immunoprecipitated with Ab^HA from solubilised cell lysates, co-precipitated BT detected by western blotting with Ab^cMyc; non-immune rabbit IgG as negative control; densitometry. A general note: A western blot detects proteins with antibodies after separation by electrophoresis.

Assay [2] concerns the target HA-tagged cMyBP-C N-terminal fragment comprising domains C0–C6 (NT, residues 1–865; cMyBP-C^NT) (human) (UniProt Q14896). Described as above.
The target in assay [3] is HA-tagged full-length cMyBP-C (cMyBP-C^FL) (human) (UniProt Q14896). Described as above.
In assay [4] the target is RyR2 N-terminal fragment (residues 1–906, BT4L; RyR2^NT), yeast two-hybrid bait (human) (UniProt Q92736). As to the kind of experiment: two-hybrid; yeast two-hybrid: RyR2^NT (BT4L) as bait to screen a human heart cDNA library; the isolated cMyBP-C^CT clone retested against overlapping RyR2 fragments, β-galactosidase assay.
Assay [5] has as its target full-length human RyR2 (recombinant) (human) (UniProt Q92736). Kind of assay: co-IP; HEK293 cells co-expressing full-length human RyR2 with human cMyBP-C/FL; RyR2 immunoprecipitated with Ab^1093 from cell lysate, co-precipitated cMyBP-C detected by western blotting with Ab^HA; non-immune rabbit IgG as negative control.

These are yes or no findings as the source states them, for the method shown. For some assays here: In cells and extracts the contact can be indirect. Some entries that bind do so weakly or less than the wild type.

As for “BT4LR3, RyR3 N-terminal fragment, amino acids 1–911 (RyR3^NT) (from UniProt Q15413 1-911) (domain or fragment)”, the binding result in assay [1] is “binds”. With “BT4D (cMyc-tagged RyR2 residues 161–759) (from UniProt Q92736 161-759) (domain or fragment)”, the binding entry in assay [1] was “binds”. As to “BT4DL (cMyc-tagged RyR2 residues 161–906) (from UniProt Q92736 161-906) (domain or fragment)”, the binding entry in assay [1] was “binds”. Turning to “BT7 (cMyc-tagged RyR2 residues 3071–3940) (from UniProt Q92736 3071-3940) (domain or fragment)”, the binding entry in assay [2], in assay [1] and in assay [3] was “no binding” each time. As for “cMyBP-C C-terminus (residues 817–1274; cMyBP-C^CT), clone isolated from a human heart cDNA library in the yeast two-hybrid screen (from UniProt Q14896 817-1274) (domain or fragment)”, in assay [4], the binding result is “binds”.

Regarding “BT4L (cMyc-tagged RyR2 residues 1–906) (from UniProt Q92736 1-906) (domain or fragment)”, the binding result is on record as “no binding” in assay [2], “binds” in assay [1] and “binds” in assay [3]. “BT4EL (cMyc-tagged RyR2 residues 565–906) (from UniProt Q92736 565-906) (domain or fragment)”: the binding result in assay [1] is “binds”. Consider “HA-tagged full-length cMyBP-C (cMyBP-C^FL) (from UniProt Q14896 1-1274)”, for which the binding result in assay [5] is “binds”.

For the substance “BT4LR1, RyR1 N-terminal fragment, amino acids 1–915 (RyR1^NT) (from UniProt P21817 1-915) (domain or fragment)”, the binding entry in assay [1] is given as “binds”. Still for that read-out and setting: with “BT4 (cMyc-tagged RyR2 residues 1–759) (from UniProt Q92736 1-759) (domain or fragment)” the entry was “binds”.
